In all, about 2,000 compounds went through this assay and about 110 (5.5%) showed an effect of 50% or more. Some of the results follow.
Molecular target: Genome polyprotein (dengue virus type 2) (UniProt P29990)
[1] = Thailand/16681/1984, Concentration 25.0 uM, Number of replicates 1.0

C[C@@H](C(=O)Nc1cccc(CN)c1)c1ccc(OCc2ccccc2)cc1
inhibition (Thailand/16681/1984, Concentration 49.5 uM, Number of replicates 2.0, Standard deviation 0.3044314072412208 %): -4.36%
inhibition (Thailand/16681/1984, Concentration 99.01 uM, Number of replicates 2.0, Standard deviation 0.7321447066003233 %): -2.65%
inhibition (Thailand/16681/1984, Concentration 198.0 uM, Number of replicates 2.0, Standard deviation 1.545638942119706 %): 1.83%

NCCC(=O)Nc1cccc2cccnc12
inhibition (Thailand/16681/1984, Concentration 49.95 uM, Number of replicates 2.0, Standard deviation 1.674842930068702 %): -9.45%
inhibition (Thailand/16681/1984, Concentration 99.9 uM, Number of replicates 2.0, Standard deviation 2.956474982493684 %): -7.49%

Cn1c(CO)nnc1[C@H]1CCCN(C(=O)C2CCN(c3ccc(C=O)cc3)CC2)C1
inhibition [1]: 15.9%

Cc1cccc(CN2CCN(C(=O)C3CCN(c4ccc(C=O)cc4)CC3)CC2)c1
inhibition [1]: 12.7%

Cc1cc(CO)c2cccc(CC(=O)N3CC[C@@H](CO)C3)c2n1
inhibition (Thailand/16681/1984, Concentration 49.95 uM, Number of replicates 2.0, Standard deviation 0.5137309710723801 %): -5.22%
inhibition (Thailand/16681/1984, Concentration 99.9 uM, Number of replicates 2.0, Standard deviation 2.131775122213861 %): 2.82%

NC1(c2cccc(NC(=O)[C@@H](NC(=O)OCc3ccccc3)c3ccc(OCc4ccccc4)cc3)c2)CCC1
inhibition (Thailand/16681/1984, Concentration 49.5 uM, Number of replicates 2.0, Standard deviation 1.548341364789727 %): -1.1%
inhibition (Thailand/16681/1984, Concentration 99.01 uM, Number of replicates 2.0, Standard deviation 2.5737499035846856 %): -0.156%
inhibition (Thailand/16681/1984, Concentration 198.0 uM, Number of replicates 2.0, Standard deviation 1.3706209083708834 %): 5.8%

CCCC[C@H](N)C(=O)N[C@@H](C(=O)NCc1ccc(C(N)=O)cc1)c1ccc(OCc2ccccc2)cc1
inhibition (Thailand/16681/1984, Concentration 49.5 uM, Number of replicates 2.0, Standard deviation 0.45534308736890416 %): -4.77%
inhibition (Thailand/16681/1984, Concentration 99.01 uM, Number of replicates 2.0, Standard deviation 0.9591594337975816 %): 6.09%
inhibition (Thailand/16681/1984, Concentration 198.0 uM, Number of replicates 2.0, Standard deviation 4.328590586700157 %): 82.3%

CS(=O)(=O)N1CCC(NC(=O)C2CCN(c3ccc(C=O)cc3)CC2)CC1
inhibition [1]: 12%

Cc1cnccc1NC(=O)c1cc(C2CCC2)n(C)c1C
inhibition (Thailand/16681/1984, Concentration 49.5 uM, Number of replicates 2.0, Standard deviation 0.7067686370209446 %): 0.618%
inhibition (Thailand/16681/1984, Concentration 99.01 uM, Number of replicates 2.0, Standard deviation 0.7459418989288495 %): 1.95%
inhibition (Thailand/16681/1984, Concentration 198.0 uM, Number of replicates 2.0, Standard deviation 0.11875700646175207 %): 4.33%

NC(=O)c1ccc(Cl)c(NC(=O)C2CCN(c3ccc(C=O)cc3)CC2)c1
inhibition [1]: 13.8%

C[C@H](NC(=O)C1CCN(c2ccc(C=O)cc2)CC1)c1ccccc1C(F)(F)F
inhibition [1]: 13.2%

CCCC[C@H](N)C(=O)N[C@H](C(=O)NCc1ccc(C(N)=O)cc1)c1ccc(OCc2ccccc2)cc1
inhibition (Thailand/16681/1984, Concentration 49.5 uM, Number of replicates 2.0, Standard deviation 0.2650581585371317 %): -6.18%
inhibition (Thailand/16681/1984, Concentration 99.01 uM, Number of replicates 2.0, Standard deviation 5.609533791033077 %): 63.5%
inhibition (Thailand/16681/1984, Concentration 198.0 uM, Number of replicates 2.0, Standard deviation 0.01804559465842439 %): 99.8%

COC(=O)c1csc(Cn2ncc(C3CCNCC3)c2C)n1
inhibition (Thailand/16681/1984, Concentration 49.5 uM, Number of replicates 2.0, Standard deviation 0.7717951129802201 %): -5.62%
inhibition (Thailand/16681/1984, Concentration 99.01 uM, Number of replicates 2.0, Standard deviation 0.8815947340216488 %): -4.23%
inhibition (Thailand/16681/1984, Concentration 198.0 uM, Number of replicates 2.0, Standard deviation 1.4332580373412276 %): -2.98%

CCCCCC(=O)N[C@H](C(=O)N1CCC(CN)CC1)c1ccc(OCc2ccccc2)cc1
inhibition (Thailand/16681/1984, Concentration 49.5 uM, Number of replicates 2.0, Standard deviation 0.28807609613725765 %): -0.096%
inhibition (Thailand/16681/1984, Concentration 99.01 uM, Number of replicates 2.0, Standard deviation 0.6037821383349988 %): 0.933%
inhibition (Thailand/16681/1984, Concentration 198.0 uM, Number of replicates 2.0, Standard deviation 0.26542854504184543 %): 3.19%

CC(C)Nc1nc2cc(NC(=O)Cc3cocn3)ccc2[nH]1
inhibition (Thailand/16681/1984, Concentration 49.5 uM, Number of replicates 2.0, Standard deviation 2.957660172947234 %): -2.35%
inhibition (Thailand/16681/1984, Concentration 99.01 uM, Number of replicates 2.0, Standard deviation 2.6234643030394076 %): -2.94%
inhibition (Thailand/16681/1984, Concentration 198.0 uM, Number of replicates 2.0, Standard deviation 1.9636006829919945 %): -2.38%

O=C(/C=C/c1ccc(N2CCNCC2)cc1)C(=O)N1CCOCC1
inhibition (Thailand/16681/1984, Concentration 49.5 uM, Number of replicates 2.0, Standard deviation 1.4144964098734516 %): 1.52%
inhibition (Thailand/16681/1984, Concentration 99.01 uM, Number of replicates 2.0, Standard deviation 0.4568300281843685 %): 5.18%
inhibition (Thailand/16681/1984, Concentration 198.0 uM, Number of replicates 2.0, Standard deviation 1.1436463049734074 %): 13.3%

O=Cc1ccc(N2CCC(C(=O)NCCc3ccc(-c4ccccc4)cc3)CC2)cc1
inhibition [1]: 0.487%

COc1ccc(CNC(=O)C2CCN(c3ccc(C=O)cc3)CC2)c(OC)c1
inhibition [1]: 10.2%

Cc1cnccc1NC(=O)c1cc(N2CCCC2)ncn1
inhibition (Thailand/16681/1984, Concentration 49.5 uM, Number of replicates 2.0, Standard deviation 2.024173375028578 %): -5.29%
inhibition (Thailand/16681/1984, Concentration 99.01 uM, Number of replicates 2.0, Standard deviation 1.1380880628854877 %): -2.63%
inhibition (Thailand/16681/1984, Concentration 198.0 uM, Number of replicates 2.0, Standard deviation 2.133693646758077 %): -2%

O=C(Nc1cnn2c1CNCC2)c1cccc2ncccc12
inhibition (Thailand/16681/1984, Concentration 49.5 uM, Number of replicates 2.0, Standard deviation 0.6601434145354308 %): -0.425%
inhibition (Thailand/16681/1984, Concentration 99.01 uM, Number of replicates 2.0, Standard deviation 0.6930578457318657 %): 0.074%
inhibition (Thailand/16681/1984, Concentration 198.0 uM, Number of replicates 2.0, Standard deviation 0.9980960153032259 %): 0.703%

COc1cc(Cc2cnc(N)c(C(F)F)c2)nc(N2CCNCC2)n1
inhibition (Thailand/16681/1984, Concentration 49.5 uM, Number of replicates 2.0, Standard deviation 0.44655669171298956 %): 1.19%
inhibition (Thailand/16681/1984, Concentration 99.01 uM, Number of replicates 2.0, Standard deviation 0.9500169394185984 %): 3.1%
inhibition (Thailand/16681/1984, Concentration 198.0 uM, Number of replicates 2.0, Standard deviation 0.4205436146652173 %): 6.14%

Cc1cnccc1NC(=O)c1cccn(C[C@@H](C)CN)c1=O
inhibition (Thailand/16681/1984, Concentration 49.5 uM, Number of replicates 2.0, Standard deviation 0.06828430090862199 %): 5.8%
inhibition (Thailand/16681/1984, Concentration 99.01 uM, Number of replicates 2.0, Standard deviation 0.6779640899025988 %): 10.2%
inhibition (Thailand/16681/1984, Concentration 198.0 uM, Number of replicates 2.0, Standard deviation 0.14036181818322443 %): 17.5%

O=Cc1ccc(N2CCC(C(=O)Nc3cc(C(F)(F)F)ccn3)CC2)cc1
inhibition [1]: 10.8%

N[C@@H]1CCCC[C@H]1C(=O)Nc1cccc2cccnc12
inhibition (Thailand/16681/1984, Concentration 49.95 uM, Number of replicates 2.0, Standard deviation 3.2838754106489776 %): -8.7%
inhibition (Thailand/16681/1984, Concentration 99.9 uM, Number of replicates 2.0, Standard deviation 3.148144351005342 %): -7.2%

From ChEMBL document CHEMBL5606460, “ASAP - DENV-2 NS2B-NS3 protease fluorescence single point” (2024)
